Data taken from PubChem BioAssay AID504706 (National Center for Advancing Translational Sciences (NCATS), 2011).
Screen size: about 320,000 compounds; about 200 (0.062%) were called active. This list was built around the results that the source calls inconclusive (neither active nor inactive); the mix of calls is not that of the screen. The call rests on the fitted dose curve; in most records, active means well fitted activation curve with a large enough effect; inconclusive means small, poorly fitted or top-dose-only effect; inactive means no such curve, though single readings can be large or run the other way. Potencies of inconclusive entries are left out as doubtful fits.

Experiment: qHTS assay for re-activators of p53 using a Luc reporter; further: nearly all actives have a fitted effect of over 45% in size
Details: H1299 p53-A138V BP100-luciferase reporter, luminescence, 24 h; series mostly up to 92.2 µM
Procedure, shortened: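 H1299 (p53-null), stable ts p53-A138V + BP100-Luc; 1000 cells/well, Opti-MEM/10% FBS; cpd 4 pt, 1:5; 24 h, 37 deg C, 5% CO2; detection reagent 10 min RT; luminescence.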
Potency means the concentration at half of the fitted maximal effect; tags describe the fitted curve by direction and shape.

**Q.** With `CCC(=O)Nc1nc2ccc3nc(C)sc3c2s1` as the molecule, how does the Potency read?
**A.** inconclusive [activator, partial curve, poor fit]

**Q.** For `Cc1cc(C(=O)Nc2cccc3cccnc23)ccc1[N+](=O)[O-]`, which Potency is on record?
**A.** inactive

**Q.** With `Cc1ccc(O)c(-c2cc(-c3ccccc3C)[nH]n2)c1` as the molecule, how does the Potency read?
**A.** inconclusive [activator, partial curve, poor fit]

**Q.** For `O=C(/C=C/c1ccc(F)cc1)N1CCc2ccccc2C1`, which Potency is on record?
**A.** inconclusive [activator, full curve, poor fit]

**Q.** Which Potency does the source give for `O=C1/C(=C\c2ccc(Br)o2)Cc2ccccc21` here?
**A.** inconclusive [activator, partial curve, poor fit]

**Q.** Which Potency does the source give for `OC[C@H]1OC(O)C[C@@H](O)[C@@H]1O` (some centres undefined) here?
**A.** inactive

**Q.** With `CCCCSc1nnc2c(n1)[nH]c1ccccc12` as the molecule, how does the Potency read?
**A.** inconclusive [activator, partial curve, poor fit]

**Q.** Which Potency does the source give for `Cc1cc2ncc(C(=O)Nc3ccccc3)c(C)n2n1` here?
**A.** inconclusive [activator, single point]

**Q.** For `C(=C\c1cccc2ccccc12)/c1nnc(-c2cccs2)o1`, which Potency is on record?
**A.** inactive

**Q.** For `Cn1c(=O)c2c(nc(NCc3cccnc3)n2Cc2ccccc2Cl)n(C)c1=O`, which Potency is on record?
**A.** inactive

**Q.** For `N#Cc1c(N)nc2c(c1N)CC(COc1ccccc1)O2` (centres undefined), which Potency is on record?
**A.** inconclusive [activator, full curve, poor fit]

**Q.** With `CCc1cc(=O)oc2cc3occ(-c4ccc(OC)c(F)c4)c3cc12` as the molecule, how does the Potency read?
**A.** inactive

**Q.** For `CCc1nc2oc(C(=O)c3ccccc3)c(N)c2c2c1COC(C)(C)C2`, which Potency is on record?
**A.** inactive

**Q.** Which Potency does the source give for `Cc1nnc(Sc2cc(NCCO)c([N+](=O)[O-])c3nonc23)s1` here?
**A.** inactive

**Q.** For `Cc1cccn2c(=O)c3cc(C(=O)N(C)C)n(C)c3nc12`, which Potency is on record?
**A.** inconclusive [activator, partial curve, poor fit]

**Q.** With `CCOCCCn1c(=S)[nH]c2cc(C(=O)NCCN(CC)CC)ccc2c1=O` as the molecule, how does the Potency read?
**A.** inactive

**Q.** Which Potency does the source give for `S=C(Nc1ccccc1)Nc1ccc(Cl)cc1Cl` here?
**A.** inconclusive [activator, full curve, poor fit]

**Q.** For `O=C(NCc1ccc2c(c1)OCO2)Nc1ccc(Cl)cc1`, which Potency is on record?
**A.** inactive

**Q.** With `CN(C)c1ccc(NC(=S)NC(=O)/C=C/c2ccc(Cl)cc2)cc1` as the molecule, how does the Potency read?
**A.** inconclusive [activator, partial curve, poor fit]

**Q.** With `CCN(Cc1ccccc1)S(=O)(=O)c1c(C(=O)N2CCCC2)c(C)n(C)c1C` as the molecule, how does the Potency read?
**A.** inactive

**Q.** With `COc1ccc(C(=O)NCCC2=CCCCC2)cc1OC1CCN(C(C)C)CC1` as the molecule, how does the Potency read?
**A.** inconclusive [activator, full curve]

**Q.** For `N#C/C(=C\c1cccc(Oc2ccccc2)c1)C(=O)N1CCOCC1`, which Potency is on record?
**A.** inconclusive [activator, single point]

**Q.** For `CCOc1ccc(C(=O)NC(=S)Nc2ccccn2)cc1[N+](=O)[O-]`, which Potency is on record?
**A.** inconclusive [activator, single point]

**Q.** Which Potency does the source give for `COc1cccc(NC(=O)c2csc3c2CCCC3)c1` here?
**A.** inactive

**Q.** Which Potency does the source give for `COc1ccc(CC2(CO)CCN(Cc3cccnc3)CC2)cc1` here?
**A.** inactive

**Q.** For `CCOC(=O)c1nn(-c2ccccc2)c2nc(-c3ccc(OC)cc3)c(C#N)c(=O)n12`, which Potency is on record?
**A.** inactive

**Q.** With `O=C(c1ccc(F)cc1)N1CCCN(c2nc(-c3ccccc3)ns2)CC1` as the molecule, how does the Potency read?
**A.** inactive

**Q.** With `CCOC(=O)C1CCN(C(=O)c2cc3ccc(OC)cc3[nH]2)CC1` as the molecule, how does the Potency read?
**A.** inconclusive [activator, partial curve, poor fit]

**Q.** Which Potency does the source give for `COc1ccc(C2=NN3C(=O)c4c(ccc(OC)c4OC)C3C2)cc1` (centres undefined) here?
**A.** inactive

**Q.** For `O=C(CNc1ccc(Br)cc1)c1ccc(Br)s1`, which Potency is on record?
**A.** inconclusive [activator, full curve, poor fit]

**Q.** With `COC(=O)Cn1cnc2c(Cl)nc(F)nc21` as the molecule, how does the Potency read?
**A.** inconclusive [activator, partial curve, poor fit]

**Q.** For `CC(=O)c1c(C)nc(-c2ccc3c(c2)OCO3)n1O`, which Potency is on record?
**A.** inconclusive [activator, single point]

**Q.** With `Cc1ccc(F)c([C@H]2[C@H]3C=CC[C@@H](C)[C@@H]3C(=O)N2Cc2ccccc2)c1` as the molecule, how does the Potency read?
**A.** inactive

**Q.** With `NC(=O)NC(=O)COC(=O)c1ccc(Cl)c(S(=O)(=O)N(Cc2ccccc2)c2ccc(Cl)cc2)c1` as the molecule, how does the Potency read?
**A.** inactive

**Q.** Which Potency does the source give for `COc1ccc2oc(C(=O)C3CC3)c(N)c2c1` here?
**A.** inconclusive [activator, partial curve, poor fit]

**Q.** Which Potency does the source give for `Cc1ccc(NC(=O)c2ccc(C)cc2)cc1` here?
**A.** inconclusive [activator, partial curve, poor fit]

**Q.** For `O=C(Nc1ccc(Cl)c(Cl)c1)c1ccc(Cn2cc(Cl)cn2)cc1`, which Potency is on record?
**A.** inconclusive [activator, partial curve, poor fit]

**Q.** With `CCC1(C)Cc2c(sc3nc(SC)nc(NCCN(C)C)c23)CO1` (centres undefined) as the molecule, how does the Potency read?
**A.** inconclusive [activator, single point]

**Q.** Which Potency does the source give for `Cc1ccc(N=Cc2cc(C)n(C3CCCC3)c2C)cc1` here?
**A.** inactive

**Q.** For `Cn1nccc1C(=O)Nc1ccn(C23CC4CC(CC(C4)C2)C3)n1`, which Potency is on record?
**A.** inconclusive [activator, single point]

**Q.** With `CCOc1ccc(NC(=O)C(c2ccccn2)N(C(=O)CCl)c2ccc(OC)cc2)cc1` (centres undefined) as the molecule, how does the Potency read?
**A.** inconclusive [activator, partial curve, poor fit]

**Q.** For `O=C(Nc1ccc(F)cc1)C1COc2ccccc2O1` (centres undefined), which Potency is on record?
**A.** inconclusive [activator, single point]

**Q.** With `C=CS(=O)(=O)N(Cc1ccc(Cl)c(Cl)c1)C[C@@H](O)CO` as the molecule, how does the Potency read?
**A.** inactive

**Q.** Which Potency does the source give for `COCCNC(=O)c1ccc2c(c1)CCN2S(C)(=O)=O` here?
**A.** inactive

**Q.** For `Cc1ccccc1NC(=O)CSCc1nc(N)nc(Nc2ccccc2C)n1`, which Potency is on record?
**A.** inactive

**Q.** Which Potency does the source give for `COc1ccc(-c2coc3cc(O)c(OC)cc3c2=O)cc1` here?
**A.** inconclusive [activator, full curve, poor fit]

**Q.** With `Nc1nc(CN2CCc3ccccc3C2)nc(Nc2ccccc2)n1` as the molecule, how does the Potency read?
**A.** inconclusive [activator, partial curve, poor fit]

**Q.** Which Potency does the source give for `CC(=O)Nc1nc(C)c(-c2csc(Nc3ccc(O)cc3)n2)s1` here?
**A.** inconclusive [activator, full curve, poor fit]

**Q.** Which Potency does the source give for `Cc1[nH]cnc1CSCc1ccc(F)cc1` here?
**A.** inconclusive [activator, partial curve, poor fit]

**Q.** For `O=c1cc(-c2ccccc2)[nH][nH]1`, which Potency is on record?
**A.** inactive

**Q.** Which Potency does the source give for `Cc1ccc(/C=N/Nc2nnc(Cl)c3ccccc23)cc1` here?
**A.** inconclusive [activator, partial curve, poor fit]

**Q.** Which Potency does the source give for `O=C(COC(=O)CCN1C(=O)/C(=C\C=C\c2ccccc2)SC1=S)Nc1cc(F)ccc1F` here?
**A.** inactive

**Q.** For `c1ccc(-c2nc(N3CCN(c4ccccc4)CC3)nc(-n3ccnc3)n2)cc1`, which Potency is on record?
**A.** inactive

**Q.** For `CCCCOC(=O)C1CCCC(C(=O)OCCCC)N1` (centres undefined), which Potency is on record?
**A.** inconclusive [activator, single point]

**Q.** With `O=c1oc2ccccc2cc1-c1csc(NN=C2CCCCC2)n1` as the molecule, how does the Potency read?
**A.** inconclusive [activator, full curve, poor fit]

**Q.** Which Potency does the source give for `COc1ccc(C(C(=O)NC2CCCCC2)N(Cc2cccs2)C(=O)Cc2c[nH]c3ccccc23)cc1OC` (centres undefined) here?
**A.** inactive

**Q.** For `COc1cc(SC)ccc1C(=O)NCCOc1ccc(F)cc1`, which Potency is on record?
**A.** inconclusive [activator, partial curve, poor fit]

**Q.** For `CN(C)CCCN(C(=O)c1ccc(S(=O)(=O)N2CCCc3ccccc32)cc1)c1nc2ccc(F)cc2s1`, which Potency is on record?
**A.** inconclusive [activator, partial curve, poor fit]

**Q.** Which Potency does the source give for `O=C(Nc1ccccc1)c1ccc(S(=O)(=O)N2CCCCC2)cc1` here?
**A.** inactive

**Q.** Which Potency does the source give for `COc1ccccc1Nc1ncc(-c2cccs2)s1` here?
**A.** inconclusive [activator, partial curve, poor fit]

**Q.** For `CC(=O)c1ccc(NC(=O)C2CC(=O)N(Cc3ccccc3)C2)cc1` (centres undefined), which Potency is on record?
**A.** inactive

**Q.** With `COc1ccccc1OCCSc1nnnn1-c1ccc(C)cc1` as the molecule, how does the Potency read?
**A.** inconclusive [activator, full curve, poor fit]

**Q.** With `CC1CCCN(C(=O)c2cccc(S(=O)(=O)N3CCCc4ccccc43)c2)C1` (centres undefined) as the molecule, how does the Potency read?
**A.** inactive

**Q.** With `Cc1ccc(OCn2c(=O)sc3ccccc32)cc1` as the molecule, how does the Potency read?
**A.** inconclusive [activator, partial curve, poor fit]

**Q.** With `CCN(CC)CCC(c1ccc(N(C)C)cc1)c1c(OC)cc(OC)c2c(-c3ccccc3)cc(=O)oc12` (centres undefined) as the molecule, how does the Potency read?
**A.** inactive

**Q.** With `N#Cc1c2ccc([N+](=O)[O-])cc2[n+]([O-])n1-c1ccccc1` as the molecule, how does the Potency read?
**A.** inactive

**Q.** Which Potency does the source give for `COc1ccc(OCc2cccc(C(=O)Nn3cc([N+](=O)[O-])cn3)c2)cc1` here?
**A.** inconclusive [activator, partial curve, poor fit]

**Q.** For `O=C(COC(=O)Cc1cccc(F)c1)NC(=O)NC1CCCCC1`, which Potency is on record?
**A.** inactive

**Q.** For `CC(C)c1nc2oc3c(NCC4CCCO4)ncnc3c2c2c1CCC2` (centres undefined), which Potency is on record?
**A.** inactive

**Q.** With `O=C(COC(=O)c1ccc(S(=O)(=O)NCc2ccco2)cc1)Nc1ccccc1OC(F)F` as the molecule, how does the Potency read?
**A.** inconclusive [activator, full curve, poor fit]

**Q.** For `CCn1c(CNc2ccc(OC)cc2)nnc1SCC(=O)c1ccc(OC)cc1`, which Potency is on record?
**A.** inconclusive [activator, single point]

**Q.** For `COc1ccc(CN=C2Nc3ccccc3CS2)cc1`, which Potency is on record?
**A.** active: 10 µM

**Q.** For `O=c1cc(/C=C/c2ccccc2)oc2ccccc12`, which Potency is on record?
**A.** inconclusive [activator, partial curve, poor fit]

**Q.** For `O=C(OCC(=O)N1CCc2ccccc2C1)c1c(F)cccc1Cl`, which Potency is on record?
**A.** inconclusive [activator, partial curve, poor fit]
